Results reported in PubChem BioAssay AID488969 (Vanderbilt High Throughput Screening Facility, 2010).
In all, about 110,000 compounds were measured (“z-score”: median about -0.1, highest 2% from about 2 on). The list shows a part of the results. The source made the active and inactive calls.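 How the source made its calls: active means z-score in the third read window above 3 or below -3; inactive means the rest.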

These compounds were tested against Metabotropic glutamate receptor 8 (Rattus norvegicus) (UniProt P70579) (assay: mGluR8 Gi/Go-coupled signaling modulation – cell-based, rat, thallium flux, HTS, primary screen (AID 488969)). Conditions: HEK293 rat mGluR8, GIRK (G protein-gated inwardly rectifying potassium channel) thallium flux, FluoZin2; at 10 µM; stronger effect = higher value; submaximal glutamate (EC20) added with thallium.
Sequence of UniProt P70579 (P70579 whole entry, looked up): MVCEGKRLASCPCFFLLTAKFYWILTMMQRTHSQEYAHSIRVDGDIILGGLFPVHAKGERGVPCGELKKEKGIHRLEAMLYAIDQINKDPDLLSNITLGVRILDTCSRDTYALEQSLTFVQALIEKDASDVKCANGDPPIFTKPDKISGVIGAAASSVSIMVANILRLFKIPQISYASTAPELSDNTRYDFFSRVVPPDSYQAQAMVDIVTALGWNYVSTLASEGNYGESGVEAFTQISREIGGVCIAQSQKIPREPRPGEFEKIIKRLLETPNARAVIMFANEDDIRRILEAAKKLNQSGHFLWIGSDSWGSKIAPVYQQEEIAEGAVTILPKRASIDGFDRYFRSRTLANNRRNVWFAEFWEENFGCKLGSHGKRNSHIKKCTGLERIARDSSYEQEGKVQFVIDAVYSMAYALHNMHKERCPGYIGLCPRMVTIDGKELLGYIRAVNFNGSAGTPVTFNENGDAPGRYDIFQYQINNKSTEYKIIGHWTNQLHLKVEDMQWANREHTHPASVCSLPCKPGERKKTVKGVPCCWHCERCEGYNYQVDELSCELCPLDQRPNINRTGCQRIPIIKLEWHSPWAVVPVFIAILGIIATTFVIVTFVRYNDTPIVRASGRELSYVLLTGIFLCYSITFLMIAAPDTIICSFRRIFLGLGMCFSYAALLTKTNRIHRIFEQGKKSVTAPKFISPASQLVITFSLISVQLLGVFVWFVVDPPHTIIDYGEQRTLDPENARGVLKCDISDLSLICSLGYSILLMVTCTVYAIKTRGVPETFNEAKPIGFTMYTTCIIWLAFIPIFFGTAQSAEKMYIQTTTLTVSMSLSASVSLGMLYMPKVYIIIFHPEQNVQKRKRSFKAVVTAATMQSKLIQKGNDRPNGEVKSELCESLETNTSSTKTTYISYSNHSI

Structure (SMILES)	z-score
Cc1c(Br)c([N+](=O)[O-])nn1C(C)C(=O)Nc1ccc2c(c1)OCO2 (stereo unspecified)	-0.225
CCN(CC)C(=O)C1CCN(CC2CC=CCC2)CC1 (stereo unspecified)	0.393
O=C(NCc1cccnc1)C1CC(=O)N(c2ccc(Cl)cc2)C1 (stereo unspecified)	-0.393
O=C(Oc1cc(Cl)ccc1Cl)c1ccc(N2CCOCC2)c([N+](=O)[O-])c1	-0.0444
CCOC(=O)c1cc(NC(=O)C2CCCO2)cc(C(=O)OCC)c1 (stereo unspecified)	-1.11
Cn1c(Oc2ccc(Cl)c3cccnc23)nc2c1c(=O)n(Cc1ccccc1Cl)c(=O)n2C	-0.261
CCCn1c(=N)n(CC(O)COc2cccc(C)c2)c2ccccc21 (stereo unspecified)	active: 3.74
CCn1c(SCC(=O)c2ccc3c(c2)Cc2ccccc2-3)nnc1-c1ccc(N)cc1	0.446
COc1ccc(-n2nnnc2-c2cccc(OC)c2)cc1	-0.094
CCN(C(=O)CSc1ncn[nH]1)c1cccc2ccccc12	0.189
COc1ccccc1N(CC(=O)NC(C)(C)C)S(=O)(=O)c1cccs1	0.0455
CCOC(=O)CSc1nnc(CNC(=O)c2cccs2)n1-c1ccccc1	-0.777
Cc1cc2c(C)c(C)c(=O)[nH]c2cc1N	0.908
COc1ccc(CNC(=O)COC(=O)Cc2ccc(Cl)cc2Cl)cc1	-0.0429
COC(=O)c1c(C(=O)OC)n(CCCN)c2ccc(C)cc12	0.31
Cc1ccc(CNn2cnnc2SCc2ccc(F)cc2)cc1	-0.0746
O=C(Nc1ccc2nc(-c3cccs3)[nH]c2c1)c1ccco1	-0.278
O=C(CCSc1ccccc1)Nc1nnc(-c2ccccc2)o1	0.683
O=C(Cc1cccs1)Nc1nc(-c2ccc(F)cc2F)cs1	-0.0368
CC1C(c2ccccc2)N(C)CCC12NC(=O)NC2=O (stereo unspecified)	-0.109
Cc1nc(/C=C/c2ccccc2)cc(/C=C/c2ccccc2)n1	-0.938
COc1ccc(S(=O)(=O)N(Cc2ccccc2)c2ccccc2C(=O)Nc2ccccc2C(=O)NCc2ccco2)cc1	0.274
O=C(COc1ccccc1Cl)NNC(=O)C1CCCO1 (stereo unspecified)	0.173

Structure (SMILES)	z-score
N=c1sccn1CC(=O)Nc1cccc2ccccc12	-0.00239
Cc1ccc(-c2csc(N(CCc3ccccc3)C(=O)COc3ccccc3)n2)cc1	-0.529
c1ccc(C2=Nc3ccccc3NC(c3ccccc3)C2)cc1 (stereo unspecified)	-0.159
Cn1c(=O)cc(OCCCC(=O)Nc2ccc3c(c2)OCCO3)c2ccccc21	-0.101
COCC(C)n1c(C)cc(C(=O)CSc2ccc(NC(C)=O)cc2)c1C (stereo unspecified)	0.445
Cc1cc2cc(CNC(=O)CCC(=O)O)ccc2[nH]1	-0.0115
CCc1ccccc1N1CCN(S(=O)(=O)c2ccc(F)c(C)c2)CC1	-0.506
N=C1C(c2nc3ccccc3c(=O)[nH]2)=C(O)CN1CCc1ccccc1	-0.107
CCOC(=O)C1CCCN(C(=O)Cn2nc(Cc3cccnc3)c3ccccc3c2=O)C1 (stereo unspecified)	0.256
CCOc1ccc2nc(NC(=O)CSc3nc4cccnc4n3C)sc2c1	-0.276
Cc1ccc(C)c(S(=O)(=O)Nc2ccc3scnc3c2)c1	-0.501
Cc1cc([N+](=O)[O-])nn1CC(=O)N1CCc2ccccc2C1	0.0111
CCSc1ncc(/C=N/Nc2ccc([N+](=O)[O-])cc2)n1C	-0.053
Cc1cccc(C(=O)NCCN2CCCC2)c1	-0.101
O=C(/C=C/c1ccccc1)NC(=S)NNC(=O)Cc1cccs1	1.37
COc1cc(OC)nc(Oc2ccccc2C(=O)Oc2ccc(Cl)cc2)n1	-0.347
CCC(C)(C)n1nnnc1C(c1ccc2ncccc2c1)N1CCCCCC1 (stereo unspecified)	-0.34
c1cncc(-c2nnc3n2N=C(c2cccs2)CS3)c1	0.191
Cc1ccc2nc(NC(=O)CSc3nncc(=O)n3N)sc2c1	-0.12
c1cnc2c(c1)ncc1cscc12	-0.0509
COc1cccc2cc(C(=O)N(Cc3ccccc3)CC3CCCO3)c(=O)oc12 (stereo unspecified)	-0.307
Cc1ccc(Cl)cc1NC(=O)N[C@@H](C)C(=O)O	-0.33
CCCCCC(=O)Nc1ccc(S(=O)(=O)Nc2ccc(Cl)nn2)cc1	1.22

Structure (SMILES)	z-score
O=C(CCCCn1c(=O)[nH]c2ccsc2c1=O)NCc1cccnc1	-0.331
CCn1c(/C(C#N)=C(\O)CCc2ccccc2)nc2ccccc21	-0.23
Cc1cccc(N(CC(N)=O)C2SC(=O)N(c3ccccc3)C2=O)c1 (stereo unspecified)	0.258
O=C(Nc1nc(-c2cccs2)c(-c2ccccc2)s1)c1ccco1	0.0269
Cc1cc(N/N=C/c2ccc(O)cc2)nc(NS(=O)(=O)c2ccccc2)n1	-0.271
O=C(NCc1ccc2c(c1)OCO2)c1ccc(CS(=O)(=O)c2ccc(Br)cc2)o1	0.0812
COc1ccc(Cc2nnc(SCC(=O)NC3CCCC3)o2)cc1	0.209
Cc1c(C(=O)/C=C/c2cccs2)oc2ccc(F)cc12	-0.232
O=c1c2c(-c3ccccc3)csc2ncn1/N=C/c1c2ccccc2cc2ccccc12	-0.133
Cc1nc(Sc2cccn2C)c(C(F)(F)F)c(=O)[nH]1	0.88
CCCC(OC(=O)CC1Sc2ccccc2NC1=O)C(=O)NCc1ccco1 (stereo unspecified)	0.0654
COc1ccc2cc(C(=O)COC(=O)COc3ccc4c(C)cc(=O)oc4c3)ccc2c1	-0.11
O=C(Nc1cc(S(=O)(=O)N2CCCCC2)ccc1O)c1ccccc1NS(=O)(=O)c1ccc(F)c(F)c1	-0.243
CCN(CC(=O)NC(C)C)Cc1nc2sc3c(c2c(=O)[nH]1)CCC3	-0.154
Nc1ccc(C2=Nc3cccc4cccc(c34)N2)cc1	0.475
O=C(NC1CCCCCC1)C1c2ccccc2C(=O)N1Cc1cccnc1 (stereo unspecified)	1.18
O=C(CCN1CCN(Cc2ccccc2)CC1)NNC(=O)Cc1ccc(Cl)c(Cl)c1	0.102
COc1ccccc1N1CCN(C(=O)c2c(-c3c(Cl)cccc3Cl)noc2C)CC1	-0.322
Clc1ccc(-c2nnc3n2CCCCC3)cc1	-0.169
O=C(NC1CCCCC1)C1CCCN1C(=O)NCc1ccccc1 (stereo unspecified)	0.608
CCOC(=O)C1=C(C)OC(N)=C(C#N)C1c1cc2cc(C)ccc2nc1N1CCCCC1 (stereo unspecified)	-0.112
CCOCc1nnc(NC(C)=O)s1	-0.745
Cc1ccc(C(=O)NN2C(=O)C3C4c5ccccc5C(c5ccccc54)C3C2=O)cc1 (stereo unspecified)	0.15

Structure (SMILES)	z-score
O=C(NCC12CC3CC(CC(C3)C1)C2)c1nn2c(c1Cl)NC(c1ccco1)CC2C(F)(F)F (stereo unspecified)	0.596
CCOc1ccc(S(=O)(=O)N/N=C2/CC(c3ccccc3)Oc3ccccc32)cc1 (stereo unspecified)	0.00369
CCOc1ccc(C(=O)Nc2ccc(N3CCN(C)CC3)cc2)cc1Br	0.501
O=C(Nc1ccc(F)cc1)N1CCN(c2ccc3nnc(-c4ccc(F)cc4)n3n2)CC1	-1.17
CCOC(=O)c1cc(NC(=O)N2CCOCC2)c(C)nc1C	0.183
O=C(Nc1ccc(Cl)cc1)OCc1cncs1	-0.283
CCSc1nnc(NC(=O)c2cccc(S(=O)(=O)N(C)c3ccc(C)cc3)c2)s1	-0.0838
Nc1nc(Cl)cc(N2CCC(c3cc(-c4ccc(Cl)cc4)n[nH]3)CC2)n1	0.086
CC(C)C(=O)Nc1c(C(=O)c2ccc(F)cc2)oc2ccccc12	-0.347
Cc1noc(/C=C/N(C)C)c1S(=O)(=O)N1CCN(c2ccccc2)CC1	-0.527
CCCCCC[n+]1c(-c2ccccc2)csc1Nc1ccccc1	0.749
CCSc1nnc(-c2ccc(OC)cc2)o1	-1.05
O=C(O)c1ccc(OCC(O)Cn2cnc3ccccc32)cc1 (stereo unspecified)	0.0329
Cc1cc2n(n1)C(c1ccccc1)CC(c1ccc(Br)cc1)=N2 (stereo unspecified)	-0.216
CC(C)CC(=O)NC(=S)Nc1cc(C(=O)O)ccc1Cl	-0.602
COC(=O)c1sccc1NC(=S)N1CCCC(C)C1 (stereo unspecified)	1.11
Cc1csc(NC(=O)c2ccc(C)c(S(=O)(=O)N3CCCCC3)c2)n1	-0.0294
CCOc1ccc(Nc2nc(Cc3nnc(SCC(=O)O)o3)cs2)cc1	0.227
Cc1ccnc2nc(C(=O)Nc3ccc4c(c3)OCO4)nn12	0.0675
NC(=O)c1c(NC(=O)C2CCCO2)sc2c1CCC2 (stereo unspecified)	0.244
Cc1c(Cl)cccc1NC(=O)CSc1ncnc2c1cnn2CCc1ccccc1	0.508
Cc1cc(C)nc(N2CCC(CNC(=O)CCc3ccccc3)CC2)n1	-0.0691
O=C(CN(C1CCCCC1)S(=O)(=O)c1ccccc1)N1CCCC1	-0.0754

Structure (SMILES)	z-score
O=C(Nc1cccc(Cl)c1)N1CCN2C(=O)c3ccccc3C12c1ccccc1 (stereo unspecified)	-0.426
C/C(=N/NC(=O)Cc1c(C)[nH][nH]c1=O)c1ccc(O)cc1	-0.278
CCC1(CC)C(=O)NN(c2ccccc2)C1=O	-0.127
O=C(Nc1ccc(OCC(F)(F)C(F)F)c(C(F)(F)F)c1)c1ccccc1	-0.207
O=C(N/N=C/c1ccc(O)c(O)c1)c1ccc(CSc2cccc3cccnc23)cc1	-0.148
Cc1c(Cl)cccc1NC(=S)NCCc1ccc(S(N)(=O)=O)cc1	1.06
CN1CCN(NC(=O)c2cc(S(=O)(=O)N3CCOCC3)c(Cl)cc2Cl)CC1	-0.167
O=C(CSc1ncnc2c1oc1ccccc12)NCc1ccc(F)cc1	-0.486
Cn1c(=O)c2c(nc(OCc3cccnc3)n2Cc2c(F)cccc2Cl)n(C)c1=O	-2.54
O=C1c2ccccc2C(=O)N1Cc1nc(-c2ccccn2)no1	0.0421
CCn1c(C)nc2cc(C(=O)n3cc(C(=O)c4ccccc4O)cn3)ccc21	-0.483
O=C(O)c1ccccc1CSc1ncn[nH]1	0.0493
COc1cc2c(cc1NC(=O)Nc1ccc(C)cc1)oc1ccccc12	-0.398
CSc1nnc(C)c(=O)n1COC(=O)c1ccc(S(=O)(=O)N2CCOCC2)cc1	-0.333
O=C(CSc1cccc(C(F)(F)F)c1)NCc1ccccc1	0.252
CCCCCCCOC(=O)c1ccc(OC(=O)c2cccnc2)cc1	-0.32
CCCCOc1ccc(C(=O)Oc2ccc(C)nc2)cc1	-0.0482
CCC1CCC(c2nnc(-c3ccc([N+](=O)[O-])cc3)o2)CC1 (stereo unspecified)	-0.252
CCOC(=O)N1CCC(Nc2c(NCCCN(CC)c3cccc(C)c3)c(=O)c2=O)CC1	0.617
